The campaign covered roughly 310,000 compounds. About 2,200 (0.71%) showed an effect of 50% or more. The effect is printed as a negative number. The list shows a part of the results.
biological target: human ether-à-go-go-related gene (hERG) potassium channel (human, UniProt Q12809); experiment: primary screen, population patch clamp on CHO cells stably expressing hERG
Sequence (Q12809 whole entry, looked up): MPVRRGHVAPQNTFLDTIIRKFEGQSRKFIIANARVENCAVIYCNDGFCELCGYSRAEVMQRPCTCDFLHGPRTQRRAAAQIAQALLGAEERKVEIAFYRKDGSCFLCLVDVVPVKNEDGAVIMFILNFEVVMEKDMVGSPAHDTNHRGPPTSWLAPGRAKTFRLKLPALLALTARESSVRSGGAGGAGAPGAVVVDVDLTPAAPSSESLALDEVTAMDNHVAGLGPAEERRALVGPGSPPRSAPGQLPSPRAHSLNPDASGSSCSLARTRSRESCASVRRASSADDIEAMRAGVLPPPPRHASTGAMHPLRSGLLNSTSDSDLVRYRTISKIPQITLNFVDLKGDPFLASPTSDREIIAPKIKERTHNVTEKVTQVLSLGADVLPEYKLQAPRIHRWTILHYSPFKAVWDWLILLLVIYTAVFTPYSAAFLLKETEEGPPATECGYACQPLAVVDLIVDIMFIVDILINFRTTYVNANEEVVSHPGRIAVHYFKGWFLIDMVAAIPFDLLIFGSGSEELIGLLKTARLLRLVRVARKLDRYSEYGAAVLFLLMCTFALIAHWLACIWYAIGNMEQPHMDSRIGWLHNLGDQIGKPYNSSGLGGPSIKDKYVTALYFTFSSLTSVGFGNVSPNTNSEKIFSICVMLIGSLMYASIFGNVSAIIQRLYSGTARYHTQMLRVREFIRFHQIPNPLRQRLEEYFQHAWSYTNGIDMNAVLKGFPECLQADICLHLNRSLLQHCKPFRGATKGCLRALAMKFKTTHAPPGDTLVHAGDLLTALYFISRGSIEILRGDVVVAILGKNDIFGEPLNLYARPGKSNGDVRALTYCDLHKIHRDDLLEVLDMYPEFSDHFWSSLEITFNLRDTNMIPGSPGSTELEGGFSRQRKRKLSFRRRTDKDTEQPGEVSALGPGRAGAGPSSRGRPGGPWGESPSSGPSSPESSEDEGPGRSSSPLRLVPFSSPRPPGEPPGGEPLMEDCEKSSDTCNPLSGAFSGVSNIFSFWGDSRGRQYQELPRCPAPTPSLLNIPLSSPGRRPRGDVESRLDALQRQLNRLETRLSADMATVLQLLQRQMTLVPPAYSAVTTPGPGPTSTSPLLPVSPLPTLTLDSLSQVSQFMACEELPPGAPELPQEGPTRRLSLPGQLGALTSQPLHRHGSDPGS

Row | SMILES | hERG current change (%, negative = inhibition) at 1uM
1 | Cc1cc(C)c2cc(C(=O)N3CCN(c4ncccc4C(F)(F)F)CC3)[nH]c2c1 | 7.95%
2 | CCOC(=O)CSc1nnnn1-c1cccc2ccccc12 | 20.3%
3 | COC(=O)C(C)(C)ONC(=O)Nc1ccc([N+](=O)[O-])cc1 | -0.0253%
4 | Cc1ccc(-c2noc(-c3ccccc3Br)n2)cc1 | 8.89%
5 | O=C(O)CSc1ccc2ccccc2n1 | 11.9%
6 | COc1ccc(OCC(=O)OC(C)CN2CCCCC2)cc1 (stereo not shown) | 12.1%
7 | COc1ccc(S(=O)(=O)N2CCC(C(=O)NC3CC3)CC2)cc1Cl | 9.14%
8 | COc1ccc(C2Nc3ccccc3C(=O)N2NS(=O)(=O)c2ccc(C)cc2)c(OC)c1 (stereo not shown) | 10.8%
9 | O=C(c1cccc(S(=O)(=O)N2CCCCC2)c1)N1CCc2ccccc21 | 5.5%
10 | O=C(Nc1ccc(N2CCOCC2)cc1)C1CC(=O)N(c2ccc(F)cc2)C1 (stereo not shown) | -5.42%
11 | O=C1C(Cl)=C(N2CCOCC2)C(=O)N1c1ccc(Br)cc1 | 12.5%
12 | Cc1cccc(OCCCn2c(=O)oc3ccccc32)c1 | 16.1%
13 | COc1ccc(CN2CCN(Cc3ccccc3F)CC2)cc1.O=C(O)C(=O)O | 1.94%
14 | CC(C)n1c(=O)c(C=Nc2ccc(Br)cc2)c(O)n(Cc2ccco2)c1=O | 10.9%
15 | COc1ccc(C(=O)OCC(=O)NCCCc2ccccc2)c(OC)c1 | 2.43%
16 | Cn1nnnc1SCc1nc2ccccc2[nH]1 | -1.71%
17 | CC(=O)c1cccc(NC(=O)c2nccnc2C(=O)O)c1 | 8.66%
18 | O=c1[nH]c(CO)nc2c1oc1ccccc12 | 10.8%
19 | O=C(NC1CCCCC1)NC12CC3CC(CC(C3)C1)C2 | 7.67%
20 | COc1cc(NC(=S)NC2CC(C)(C)NC(C)(C)C2)cc(OC)c1 | 13.2%
21 | CCOC(=O)Cc1c(C)[nH]c(=S)[nH]c1=O | 15.7%
22 | COc1ccc(Nc2cc(C)c3ccc(O)cc3n2)cc1 | 0.561%
23 | CCOC(=O)Cn1nnnc1C(CC)N(Cc1ccccc1)Cc1cc2cc(C)ccc2[nH]c1=O (stereo not shown) | -2.05%

Row | SMILES | hERG current change (%, negative = inhibition) at 1uM
24 | O=C1N[C@H](C(=O)O)CS1 | 1.68%
25 | Cc1ccc(CNC(=O)C2(S(=O)(=O)c3ccccc3)CC=CC2)cc1 | 2.36%
26 | O=C1CCCc2c1nc(-c1ccco1)n2O | 16.6%
27 | CCOC(=O)/C(=N\Nc1ccc(Br)cc1)N1CC(C)OC(C)C1 (stereo not shown) | -1.02%
28 | CCOC(=O)c1c(NC(=O)C2=COCCO2)sc2c1CCN(C(=O)OC)C2 | 10.5%
29 | CCN1CCc2c(OCC(=O)Nc3cccc(C)c3)cccc2C1=O | 12.4%
30 | CCCC1N2CC3([N+](=O)[O-])CN1CC([N+](=O)[O-])(C2)C3(C)C (stereo not shown) | 0.0294%
31 | CCN(CC)S(=O)(=O)c1cccc(-c2nnc(SCC(N)=O)n2N)c1 | 0.795%
32 | COc1cc(OC)cc(-c2nnc(SCc3ccc(C(=O)O)cc3)o2)c1 | -3.3%
33 | CCC1CCCCN1S(=O)(=O)c1ccc(S(=O)(=O)N(Cc2ccccn2)CC2CCCO2)cc1 (stereo not shown) | 11.8%
34 | Cc1cc(CN2CCCCC2)oc1C(=O)O.Cl | 4.85%
35 | CCOC(=O)C1=C(NC(=S)NC(=O)c2ccccc2)c2ccccc2CC1(C)CC (stereo not shown) | 15.2%
36 | COC(=O)c1ccccc1Sc1ncnc2onc(C)c12 | 2.19%
37 | Cc1ccc(C)c(-n2nnnc2Sc2nc([N+](=O)[O-])nn2C)c1 | 2.1%
38 | CCc1cccc(C)c1NC(=S)NCc1ccccc1 | 11%
39 | CCC(NC(=O)c1ccccc1NC(=O)c1ccccc1)C(=O)NNC(=O)CSc1nc2ccccc2o1 (stereo not shown) | 1.8%
40 | O=C(O)/C(=C1/OC(=O)c2ccccc21)c1ccccc1 | 6.12%
41 | O=C(Nc1ccc(Cc2ccc(NC(=O)C3CC3)cc2)cc1)C1CC1 | 15.9%
42 | CN(C)c1ccc(CC(=O)c2nc3ccccc3s2)cc1 | 12.8%
43 | CC1(C(=O)OCc2cc(=O)n3cc(Br)ccc3n2)CC1(Cl)Cl (stereo not shown) | -11.1%
44 | CN(C)NC(=O)c1cccc(Cl)c1 | 15.4%
45 | Nc1cccc(S(=O)(=O)Nc2ccc(SC(F)F)cc2)c1 | 11%
46 | COc1ccc(NC(=O)c2ccc(Cn3cc(Cl)cn3)cc2)cc1 | 6.4%

Row | SMILES | hERG current change (%, negative = inhibition) at 1uM
47 | Cc1c(C(=O)N2CCC(C)CC2)oc2ccc(S(=O)(=O)N3CCC4(CC3)OCCO4)cc12 | 2.19%
48 | Cc1ccccc1CN1[C@@H](Cc2ccccc2)COCCS1(=O)=O | 11.1%
49 | O=C(NCC1CCCO1)c1ccc2c(=O)n(Cc3ccc(Cl)cc3)c(=S)[nH]c2c1 (stereo not shown) | 7.38%
50 | CCn1cc(S(=O)(=O)NCc2ccccc2Br)cn1 | 10.2%
51 | CCCCCNC(=O)c1ccc2c(=O)[nH]c3c(C(=O)NCC4CCCO4)sc(=S)n3c2c1 (stereo not shown) | 4.82%
52 | CC(C)c1ccc(C(=O)Nc2ccc(CN3CCOCC3)cc2)cc1 | -7.48%
53 | CCC(C)NC(=O)Cn1cc(S(=O)(=O)N2CCCC2)c(S(=O)(=O)N2CCCC2)c1 (stereo not shown) | 13.6%
54 | O=C(O)c1cccnc1SCc1ccccc1Cl | -0.261%
55 | CC(=O)Nc1ccccc1C(=O)C(=O)Nc1cccc(C(=O)NCc2ccccc2)c1 | 3.7%
56 | CCN(CC)CCCNC(=S)N(Cc1cccnc1)Cc1cc2cc(C)ccc2[nH]c1=O | 8.85%
57 | O=C(CCN1C(=O)/C(=C/c2ccccc2Cl)SC1=S)NNC(=O)c1ccccc1O | 10.2%
58 | CCOC(=O)c1c(C)[nH]c(C(=O)OCC(=O)N(CC(C)C)c2c(N)n(Cc3ccccc3)c(=O)[nH]c2=O)c1C | -6.78%
59 | COc1ccc(C2C(C#N)=C(SC)NC3=C2C(=O)CC(C)(C)C3)cc1 (stereo not shown) | 2.77%
60 | CCCOC(=O)c1c(NC(=O)C2C3C=CC(C3)C2C(=O)O)sc2c1CCC(C)C2 (stereo not shown) | 0.368%
61 | CN(Cc1cccc(Cl)c1Cl)c1ccc(S(=O)(=O)N2CCCCC2)cc1[N+](=O)[O-] | 6.09%
62 | CN(C(=O)COC(=O)COc1ccccc1Cc1ccccc1)c1ccccc1 | 7.45%
63 | CCn1c(O)c(C(C#N)=C2N=c3ccccc3=N2)c2ccccc21 | 5.96%
64 | CC(Oc1ccccc1)c1nnc(N)s1 (stereo not shown) | -2.39%
65 | Cc1ccc(S(=O)Cc2ccc(C(=O)N3CCN(C(=O)c4ccco4)CC3)o2)cc1 (stereo not shown) | 9.69%
66 | CCOc1ccc(NC(=O)CN(C)C(=O)CC2CCCCC2)cc1OCC | 3.43%
67 | COc1ccc(S(=O)(=O)N2CC(C)OC(C)C2)cc1C(=O)N1CCCCC1 (stereo not shown) | 9.1%
68 | CCCCCOc1ccc(Cn2ccnc2)cc1[N+](=O)[O-].Cl | -9.76%
69 | CC1CCN(c2nc3ccc(C(=O)NCCCN4CCCCC4)cc3s2)CC1 | -10.3%

Row | SMILES | hERG current change (%, negative = inhibition) at 1uM
70 | COC(=O)C1CCN(C(=O)COC(=O)c2n[nH]c3ccccc23)CC1 | 5.18%
71 | CC(NC(=O)CN1CCN(c2ccc(Cl)cc2)CC1)c1ccccc1 (stereo not shown) | 9.65%
72 | O=C(CCN1C(=O)c2ccccc2S1(=O)=O)Nc1ccc(F)cc1F | 8.71%
73 | COc1ccc(C(=O)N2c3ccc(F)cc3CCC2C)cc1OC (stereo not shown) | 13.7%
74 | CCOc1ccc(NC(=O)NCCCn2c(C)nc3cc(C)c(C)cc32)cc1 | 8.43%
75 | O=S(=O)(NC1CC2CCC1C2)c1ccc(Br)cc1 (stereo not shown) | 3.76%
76 | Cc1ccc(C(=O)Nc2ccc(C(=O)N/N=C/c3ccncc3)cc2)cc1 | 14.3%
77 | O=C(NNC(=S)Nc1ccc(F)cc1)C1CC1c1ccc(Cl)cc1 (stereo not shown) | 10.2%
78 | CCCC(=O)OCC(=O)c1[nH]c(C)c(C(C)=O)c1C | 12.6%
79 | CSCCC(NS(=O)(=O)c1ccc2c(c1)OCCO2)C(=O)N(C)Cc1ccc(C)cc1 (stereo not shown) | 6.35%
80 | Cc1ccc(CNc2ncnc(N)c2[N+](=O)[O-])cc1 | 4.69%
81 | CCOC(=O)/C(C#N)=C/c1cc2ccccc2nc1Cl | -4.73%
82 | Cc1cc(NCCO)c2cc(O)ccc2n1.Cl | 26.3%
83 | N#CC1=C(N)SC(N)=C(C#N)C1c1cccc(Oc2ccccc2)c1 | 19.6%
84 | CCOc1ccc2c3c(c(=O)oc2c1OCC)CCCC3 | 13.2%
85 | O=C(O)c1ccccc1C(=O)Nc1ccc(Oc2ccccc2)cc1 | 14.3%
86 | C1CC1Cc1noc(CN2CCN(C3C4CC5CC(C4)CC3C5)CC2)n1 (stereo not shown) | -15.3%
87 | CN1CCSc2ccc(C(=O)Nc3ccc(Cl)cc3)cc21 | 17.1%
88 | NC(=O)c1cc([N+](=O)[O-])ccc1N1CCCCC1 | 9.4%
89 | CCN1CCN(C(CNS(=O)(=O)c2ccc(OC)cc2)c2cccnc2)CC1 (stereo not shown) | -17%
90 | Nc1cc(=O)[nH]c(SCC(=O)Nc2nc3ccc([N+](=O)[O-])cc3s2)n1 | 12.8%
91 | O=C(O)CSc1ccc2nnc(-c3cccnc3)n2n1 | 3.33%
